# In all, about 270,000 compounds went through this assay and about 5,800 (2.1%) were called active. The inconclusive results got no clear call from the source; some entries with a clear call stand among them for comparison. The call rests on the fitted dose curve; in most records, active means well fitted inhibition curve with a large enough effect; inconclusive means small, poorly fitted or top-dose-only effect; inactive means flat fitted curve, though single readings scatter. Potencies beside an inconclusive call are fits to weak or partial responses and may not hold up.
# Biological target: Microtubule-associated protein tau (Homo sapiens) (UniProt P10636)
# Chain of UniProt P10636 (P10636 whole entry, looked up): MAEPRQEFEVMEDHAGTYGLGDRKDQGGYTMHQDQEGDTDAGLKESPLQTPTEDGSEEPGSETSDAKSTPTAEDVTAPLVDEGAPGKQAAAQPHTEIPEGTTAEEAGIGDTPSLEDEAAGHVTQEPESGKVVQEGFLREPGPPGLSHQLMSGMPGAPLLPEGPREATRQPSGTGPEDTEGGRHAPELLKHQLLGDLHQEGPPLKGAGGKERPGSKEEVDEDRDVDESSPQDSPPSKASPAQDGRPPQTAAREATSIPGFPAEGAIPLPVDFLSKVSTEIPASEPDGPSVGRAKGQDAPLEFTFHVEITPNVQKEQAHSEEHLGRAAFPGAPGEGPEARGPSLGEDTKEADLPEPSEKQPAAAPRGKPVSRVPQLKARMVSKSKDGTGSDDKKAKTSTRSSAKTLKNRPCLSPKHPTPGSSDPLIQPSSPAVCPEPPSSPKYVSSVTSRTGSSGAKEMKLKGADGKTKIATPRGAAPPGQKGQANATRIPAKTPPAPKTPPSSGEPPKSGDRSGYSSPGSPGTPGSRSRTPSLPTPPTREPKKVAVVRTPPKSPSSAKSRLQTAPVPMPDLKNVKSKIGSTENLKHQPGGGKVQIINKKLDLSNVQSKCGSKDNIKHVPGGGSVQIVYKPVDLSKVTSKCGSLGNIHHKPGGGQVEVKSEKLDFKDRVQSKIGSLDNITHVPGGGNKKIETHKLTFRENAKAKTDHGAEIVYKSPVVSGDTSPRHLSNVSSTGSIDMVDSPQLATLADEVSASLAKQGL
# Assay: qHTS for Inhibitors of Tau Fibril Formation, Thioflavin T Binding; further: nearly all actives have a fitted effect of over 55% in size
# Conditions: recombinant tau K18 P301L (four-repeat tau fragment), heparin-induced fibrillization, ThT fluorescence; series mostly up to 57.4 µM; activity, negative = inhibition: at the top concentration
# Outline: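 K18 P301L tau (15 uM + 0.24 uM Alexa 594-tagged), heparin 20 uM, NaOAc pH 7, 6 h 37 C; ThT 30 uM, 1 h RT, ex 450/em 510 nm.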
# On the % scale 0 is the no-effect control and ±100 the full control effect; potency means the concentration at half of the fitted maximal effect; tags describe the fitted curve by direction and shape.
Structure (SMILES),Potency,"activity, negative = inhibition"
COc1ccc2nc(NC(=O)c3cc(=O)c4cc(C)cc(C)c4o3)sc2c1,"inconclusive: 1.12 µM [inhibitor, full curve]",
COc1ccc(S(=O)(=O)n2cnc(C)c2)cc1,"inconclusive: 0.0891 µM [inhibitor, full curve, poor fit]",
COC(=O)c1cc2sccc2n1CC(=O)Nc1cc(Cl)ccc1OC,,inactive: -8.8%
COc1ccc(N2CCN(c3ncnc4c3nnn4C)CC2)cc1,"inconclusive: 14.1 µM [inhibitor, partial curve]",
COC1CCCCC1Nc1ccc(C)c(C)c1 (configuration not stated),,inactive: -7.37%
N#CC(C#N)=C(N)/C(C#N)=C/c1ccc2[nH]ccc2c1,active: 14.1 µM,
CCN(C(=O)CCc1nc(-c2ccc(OC)cc2)no1)c1cc(OC)ccc1OC,"inconclusive: 17.8 µM [inhibitor, single point]",
COc1ccc(OCCn2nnc3sc4c(c3c2=O)CCCC4)cc1,"inconclusive: 39.8 µM [inhibitor, single point]",
O=C(O)c1ccc2c(c1Nc1ccccc1)C(=O)c1ccccc1C2=O,"inconclusive: 14.1 µM [inhibitor, partial curve]",
COCCNc1c(-c2ccc(OC)cc2)nc2ccc(Cl)cn12,"inconclusive: 20 µM [inhibitor, single point]",
COc1cc(NC(=O)C2Cc3ccccc3N2C(=O)c2ccccc2)cc(OC)c1 (configuration not stated),,inactive: -3.31%
CCOc1ccc(NC(=O)CCc2nnc3n(C)c(=O)c4sccc4n23)cc1,"inconclusive: 0.0447 µM [inhibitor, full curve, poor fit]",
Cc1occc1C(=O)NCc1ccccc1F,"inconclusive: 20 µM [inhibitor, partial curve]",
O=C(COc1ccc(Cl)cc1Cl)Nc1ccccn1,,inactive: -8.6%
COc1cccc(OC)c1OCCOc1ccc(C(=O)c2ccccc2)cc1,"inconclusive: 20 µM [inhibitor, single point]",
O=C(CSc1ncc2c(n1)-c1ccccc1N(Cc1ccc(Cl)cc1)S2(=O)=O)c1ccccc1,,inactive: 15.2%
Cc1ccccc1NC(=O)C(=Cc1ccc(C(=O)O)cc1)C(=O)Nc1ccccc1C,"inconclusive: 2.82 µM [inhibitor, full curve]",
Cc1ccc(-c2n[nH]c(S(C)(=O)=O)c2C#N)cc1,,inactive: -1.7%
Cc1cccc(NCCC(=O)c2ccc(Br)cc2)c1,"inconclusive: 14.1 µM [inhibitor, partial curve]",
Cc1ccc(CCNC(=O)CC2Oc3ccc(C)cc3NC2=O)cc1 (configuration not stated),,inactive: -6.11%
CCOC(=O)c1c(C)[nH]c(C)c1S(=O)(=O)NCC(=O)NCc1ccccc1C,,inactive: 12.6%
COc1cc(/C=N/NC(=O)C(=O)NCc2ccco2)cc(Br)c1O,"inconclusive: 15.8 µM [inhibitor, partial curve]",
CCCOC(=O)c1c(NC(=O)C2C3C=CC(C3)C2C(=O)O)sc2c1CCC(C)C2 (configuration not stated),"inconclusive: 25.1 µM [inhibitor, partial curve]",
CC1CCc2c(sc3nc(CN4CCOCC4)nc(N4CCc5ccccc5C4)c23)C1 (configuration not stated),"inconclusive: 28.2 µM [inhibitor, partial curve]",

Structure (SMILES),Potency,"activity, negative = inhibition"
Nc1ccc(C(=O)N/N=C\C=C\c2cccc([N+](=O)[O-])c2)cc1,"inconclusive: 3.98 µM [inhibitor, partial curve]",
COc1ccc(Cn2nnnc2C(c2cccs2)N2CCN(c3ccccc3)CC2)cc1 (configuration not stated),,inactive: -2.22%
COc1ccccc1CNC(=O)CCc1c(C)nn(-c2ccc(N3CCCCC3)nn2)c1C,,inactive: 2.33%
O=C(NNc1c2ccccc2nc2ccccc12)c1cccc(O)c1,active: 2.82 µM,
N#CC1=C(N)Oc2n[nH]c(-c3ccccc3)c2C1c1ccsc1 (configuration not stated),"inconclusive: 31.6 µM [inhibitor, partial curve]",
CC(=C/C(=O)O)/C=C/c1ccco1,active: 14.1 µM,
CCOc1ccc(CNCc2c(C(=O)O)n(Cc3ccccc3C)c3cc(OC)ccc23)cc1OC,,inactive: -9.83%
O=C(Cn1c(O)c(/C=C2\C=Nc3ccc(Br)cc32)sc1=O)N1CCCC1,"inconclusive: 22.4 µM [inhibitor, partial curve]",
COc1ccc(NC(=S)NNC(=O)c2nnn(-c3ccccc3)c2C)cc1,"inconclusive: 22.4 µM [inhibitor, single point]",
CCOc1ccc(/C=N/N(C)c2ccccc2)cc1OC,active: 7.94 µM,
N#Cc1nc(-c2ccccc2F)oc1NCc1ccccc1,"inconclusive: 35.5 µM [inhibitor, single point]",
CSc1ccc(/C=C/C(=O)c2ccc(NC(=O)C(C)C)cc2)cc1,"inconclusive: 15.8 µM [inhibitor, partial curve]",
CCOC(=O)c1ccc(-c2ccc(/C=C(\C#N)C(=O)Nc3ccc(C)cc3)o2)cc1,"inconclusive: 3.16 µM [inhibitor, full curve]",
COc1cc(CN(C(=O)c2ccc(Cl)cc2)C2CCS(=O)(=O)C2)cc(OC)c1OC (configuration not stated),,inactive: 7.4%
COc1ccc(S(=O)(=O)N[C@@H](C)C(=O)OCC(=O)Nc2cc3oc4ccccc4c3cc2OC)cc1,,inactive: -14.5%
Cc1ccc2oc(-c3ccc(C)c(NC(=O)c4ccc(-c5ccccc5[N+](=O)[O-])o4)c3)nc2c1,"inconclusive: 8.91 µM [inhibitor, partial curve, poor fit]",
Cc1ccc(NC(c2nnc(-c3ccccc3)o2)c2ccccc2F)c(Cl)c1 (configuration not stated),,inactive: -4.99%
Cc1cccc(OCC(=O)N/N=C/c2ccc(N(C)C)cc2)c1,active: 3.55 µM,
CC(C)COCc1ccc(O)c2ncccc12,"inconclusive: 17.8 µM [inhibitor, partial curve]",
CC(=O)c1cc2c(cc1NC(=O)CCNC(=O)c1ccccc1Cl)OCO2,"inconclusive: 15.8 µM [inhibitor, partial curve]",
CCCn1c(-c2nonc2N)nc2ccccc21,,inactive: -10.8%
Cc1c(Cl)cccc1NC(=O)Nc1ccc2snnc2c1,"inconclusive: 39.8 µM [activator, single point]",
CCCC(=O)Nc1ccc2nc(SCC(=O)Nc3ccc(N4CCOCC4)c(Cl)c3)sc2c1,"inconclusive: 12.6 µM [inhibitor, partial curve]",
